According to publication PMC12136788:
Some of the results follow.

T1: UNK ZnF1-3 (human, UniProt Q9C0B0 31-174)
T1 sequence: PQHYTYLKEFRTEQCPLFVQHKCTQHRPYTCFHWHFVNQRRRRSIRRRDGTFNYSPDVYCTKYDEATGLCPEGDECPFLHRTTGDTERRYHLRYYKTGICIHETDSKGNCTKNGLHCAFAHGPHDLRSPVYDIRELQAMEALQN

B1: 33708304_33708424_4120_3pUTR_ENSMUSG00000027677_ENSMUST00000099153|mouse|control|control (ssRNA)
RNA: GGGAGUUCUACAGUCCGACGAUCAACUCUGCUGUCUGGCUGCUCUUUGCUAUUUAGCAUCUCUUCUGGAGCCUCGUUUCUAUUACCCUCCCCACAACUGUCCUCCUUUUCAUACACACGCUCUCCCUGGUUUGUAUUUAACUGCAACAGAGGAUUGAGCAUCA
B2: chr14:21833301:21833302:-_ENSG00000092201_ENST00000216297|hu_mus|FALSE|FALSE (ssRNA)
RNA: GGGAGUUCUACAGUCCGACGAUCAUUGAUGCUAAAAACCAUCCCUUUCUUUAGCUUGUACUGAUUUUUACUAUUGAUUACUAGAGAGCCUUCACGGAAUUCAAUUCCCAUCCCAAAUCCUAGAUUCUUUGUAAUUUUGUUCAGCAACAGAGGAUUGAGCAUCA
B3: chr13:115030651:115030652:+_ENSG00000130177_ENST00000356221|hu_hu|FALSE|FALSE (ssRNA)
RNA: GGGAGUUCUACAGUCCGACGAUCAAUGUACAUUUCGAUGCAAUGACCAAGCAUUGUAACAGAAAAUGUAUCAUCUCGCCUAAGACCAAGGGCUGUGUGGAAGUAGUCCACAGCAUUUUCAAAGUUGCCCAUCAGACUGUGGAUCAACAGAGGAUUGAGCAUCA
B4: 24049677_24049797_5119_CDS_ENSMUSG00000031540_ENSMUST00000044331|mouse|control|control (ssRNA)
RNA: GGGAGUUCUACAGUCCGACGAUCGGAAUCAUAGCUGCUUGGGUUCUCAUAGUUCUCUGUGGUACUCUCGAUGCUGCCCAGAUCACUGAAGCCGCUGUCUACCACCUGCUGAGAGUGGUCUGAUACGGAAGGCACAUCCAUCAUCAACAGAGGAUUGAGCAUCA
B5: chr2:179763710:179763711:+_ENSMUSG00000039108_ENSMUST00000058764|mus_mus|motif|central (ssRNA)
RNA: GGGAGUUCUACAGUCCGACGAUCCUGAGGUGGCUCUGAGGACAUGUCAAGCUCUGAAACAGGCUGUGGAGAUGGAGAAGAACGGGGGCUGGAAGCAGCGGCUGAGGCUGGAGGGCUUACCAACUUCUCUAGACCUAAGGAAGCCAACAGAGGAUUGAGCAUCA
B6: chr4:160235802:160235803:+_ENSG00000109756_ENST00000264431|hu_mus|FALSE|FALSE (ssRNA)
RNA: GGGAGUUCUACAGUCCGACGAUCGCUCAUCAGAGGGUCUGAUGCUCUCUCGAUGUCUUCCUCAUCAUCGUCAUCCUCAGAGUCAACCGCCGUCUCUGGCAGUCCACUCAGGUCCAUGUCACCGGCCUCGCUCUCCGUGGCCUGCAACAGAGGAUUGAGCAUCA

target: T1, UNK ZnF1-3; test: nsRBNS (natural sequence RNA bind-n-seq); RBNS binding buffer (assumed for nsRBNS): 25 mM Tris pH 7.5, 150 mM KCl, 3 mM MgCl2, 0.01% Triton X-100, 500 ug/ml BSA, 20 U/ml SUPERase-In, 4 C; UNK is unkempt and MSI1 is Musashi-1; names of the RNAs are library labels; protein concentration not given here; high values mean tight binding

Row | Binder | binding signal [enrichment R]
1 | B1 | 0.63
2 | B2 | 0.818
3 | B3 | 0.745
4 | B4 | 0.589
5 | B5 | 1.91
6 | B6 | 0.414
